# Laboratory results reported in the supplement of paper PMC12217912.
# The other results are listed elsewhere or left out. Sequences were assembled here from the parent chain. Values near 0.05 are background.
# B1: TEV protease; numbered along this chain (parent)
# chain: MGESLFKGPRDYNPISSSICHLTNESDGHTTSLYGIGFGPFIITNKHLFRRNNGTLVVQSLHGVFKVKDTTTLQQHLVDGRDMIIIRMPKDFPPFPQKLKFREPQREERICLVTTNFQTKSMSSMVSDTSCTFPSGDGIFWKHWIQTKDGQCGSPLVSTRDGFIVGIHSASNFTNTNNYFTSVPKNFMELLTNQEAQQWVSGWRLNADSVLWGGHKVFMVKPEEPFQPVKEATQL
# Variants of: B1
# Test: raw area under fraction-flipped curve 0-4 h after induction (AUC4h, not background-subtracted), DNA-recorder readout of cleavage of the substrate (dimensionless); higher = more cleavage of the substrate by the protease variant
# Details: temperature: 34 °C; time window: 0-4 h after rhamnose induction
# Procedure: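 In vivo DNA recorder in E. coli TOP10(DE3) ΔrhaA at 34 °C. Each TEVp single-site mutant (parent TEVp 0) is paired with a single-site variant of the 7-mer TEVs (canonical ENLYFQ|S). The substrate sits between flexible linkers in a Bxb1-sfGFP-TEVs-SsrA fusion, so cleavage stabilises Bxb1 and speeds flipping of a recombination array, read by NGS. The value is the raw area under the fraction-flipped curve over 0-4 h after rhamnose induction (AUC4h), with ≥20 reads per time point. It is not background-subtracted; inactive controls average about 0.047.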
# 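Also: Bxb1 expression induced with 0.2% (w/v) L-rhamnose at OD600 near 0.5, cultures sampled hourly, flipped fraction per protease–substrate barcode pair counted by paired-end Illumina sequencing.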
variant,measurement,value
E224S,area with substrate ENLYFQA,0.102
same,area with substrate ENLYFQC,0.096
same,area with substrate ENLYFQD,0.0666
same,area with substrate ENLYFQE,0.0644
same,area with substrate ENLYFQF,0.056
same,area with substrate ENLYFQG,0.0902
same,area with substrate ENLYFQI,0.0684
same,area with substrate ENLYFQK,0.0666
same,area with substrate ENLYFQL,0.0602
same,area with substrate ENLYFQM,0.0887
same,area with substrate ENLYFQN,0.106
same,area with substrate ENLYFQP,0.0549
same,area with substrate ENLYFQR,0.0549
same,area with substrate ENLYFQS,0.095
same,area with substrate ENLYFQT,0.0611
same,area with substrate ENLYFQV,0.0686
same,area with substrate ENLYFQW,0.0636
E224V,area with substrate ENLYFQA,0.0861
same,area with substrate ENLYFQC,0.0881
same,area with substrate ENLYFQD,0.0204
same,area with substrate ENLYFQF,0.0694
same,area with substrate ENLYFQG,0.101
same,area with substrate ENLYFQH,0.0827
same,area with substrate ENLYFQI,0.0682
same,area with substrate ENLYFQL,0.0655
same,area with substrate ENLYFQM,0.0681
same,area with substrate ENLYFQN,0.0752
same,area with substrate ENLYFQQ,0.0684
same,area with substrate ENLYFQR,0.0513
same,area with substrate ENLYFQS,0.0921
same,area with substrate ENLYFQT,0.0487
same,area with substrate ENLYFQW,0.0644
E224N,area with substrate ENLYFQA,0.103
same,area with substrate ENLYFQC,0.103
same,area with substrate ENLYFQD,0.0781
same,area with substrate ENLYFQE,0.0932
same,area with substrate ENLYFQG,0.0732
same,area with substrate ENLYFQH,0.0842
same,area with substrate ENLYFQI,0.0653
same,area with substrate ENLYFQK,0.0582
same,area with substrate ENLYFQL,0.0611
same,area with substrate ENLYFQM,0.0745
same,area with substrate ENLYFQP,0.0592
same,area with substrate ENLYFQQ,0.0073
same,area with substrate ENLYFQR,0.0516
same,area with substrate ENLYFQS,0.0961
same,area with substrate ENLYFQT,0.0625
same,area with substrate ENLYFQW,0.057
E224R,area with substrate ENLYFQA,0.0819
same,area with substrate ENLYFQC,0.0884
same,area with substrate ENLYFQD,0.0736
same,area with substrate ENLYFQG,0.0956
same,area with substrate ENLYFQI,0.0631
same,area with substrate ENLYFQK,0.0482
same,area with substrate ENLYFQL,0.0582
same,area with substrate ENLYFQM,0.0808
same,area with substrate ENLYFQN,0.0903
same,area with substrate ENLYFQS,0.0909
same,area with substrate ENLYFQT,0.0641
same,area with substrate ENLYFQV,0.0686
same,area with substrate ENLYFQY,0.0706
E224W,area with substrate ENLYFQA,0.119
same,area with substrate ENLYFQC,0.0994
same,area with substrate ENLYFQD,0.0627
same,area with substrate ENLYFQE,0.0529
same,area with substrate ENLYFQF,0.0805
same,area with substrate ENLYFQG,0.0922
same,area with substrate ENLYFQH,0.0682
same,area with substrate ENLYFQI,0.0559
same,area with substrate ENLYFQK,0.0649
same,area with substrate ENLYFQL,0.0624
same,area with substrate ENLYFQM,0.0874
same,area with substrate ENLYFQN,0.0855
same,area with substrate ENLYFQP,0.0606
same,area with substrate ENLYFQQ,0.071
same,area with substrate ENLYFQR,0.0632
same,area with substrate ENLYFQS,0.0969
same,area with substrate ENLYFQT,0.0571
same,area with substrate ENLYFQV,0.0642
same,area with substrate ENLYFQW,0.0646
E224C,area with substrate ENLYFQA,0.0881
same,area with substrate ENLYFQC,0.0904
same,area with substrate ENLYFQD,0.0465
same,area with substrate ENLYFQG,0.0886
same,area with substrate ENLYFQH,0.0774
same,area with substrate ENLYFQI,0.0749
same,area with substrate ENLYFQL,0.0455
same,area with substrate ENLYFQN,0.0516
same,area with substrate ENLYFQP,0.0445
same,area with substrate ENLYFQS,0.0961
same,area with substrate ENLYFQT,0.0749
same,area with substrate ENLYFQV,0.0645
same,area with substrate ENLYFQW,0.0579
same,area with substrate ENLYFQY,0.0622
R204H,area with substrate ENLYFQA,0.102
same,area with substrate ENLYFQC,0.106
same,area with substrate ENLYFQD,0.0496
same,area with substrate ENLYFQF,0.0891
same,area with substrate ENLYFQH,0.0884
same,area with substrate ENLYFQI,0.0681
same,area with substrate ENLYFQK,0.0646
same,area with substrate ENLYFQL,0.0631
same,area with substrate ENLYFQM,0.0944
same,area with substrate ENLYFQN,0.0751
same,area with substrate ENLYFQP,0.0565
same,area with substrate ENLYFQQ,0.0733
same,area with substrate ENLYFQR,0.0594
same,area with substrate ENLYFQS,0.0992
same,area with substrate ENLYFQT,0.0645
same,area with substrate ENLYFQV,0.0502
same,area with substrate ENLYFQW,0.0448
same,area with substrate ENLYFQY,0.0837
R204K,area with substrate ENLYFQA,0.105
same,area with substrate ENLYFQC,0.12
same,area with substrate ENLYFQD,0.0727
same,area with substrate ENLYFQG,0.0948
same,area with substrate ENLYFQH,0.0816
same,area with substrate ENLYFQI,0.0671
same,area with substrate ENLYFQK,0.063
same,area with substrate ENLYFQL,0.0596
same,area with substrate ENLYFQM,0.0808
same,area with substrate ENLYFQR,0.0933
same,area with substrate ENLYFQS,0.112
same,area with substrate ENLYFQT,0.0667
same,area with substrate ENLYFQW,0.0711
same,area with substrate ENLYFQY,0.07
Q198K,area with substrate ENLYFQA,0.0856
same,area with substrate ENLYFQC,0.0985
same,area with substrate ENLYFQD,0.0385
same,area with substrate ENLYFQG,0.0973
same,area with substrate ENLYFQH,0.0804
same,area with substrate ENLYFQI,0.0641
same,area with substrate ENLYFQK,0.0607
same,area with substrate ENLYFQL,0.0526
same,area with substrate ENLYFQM,0.117
same,area with substrate ENLYFQN,0.0761
same,area with substrate ENLYFQP,0.0561
same,area with substrate ENLYFQQ,0.0619
same,area with substrate ENLYFQR,0.0624
same,area with substrate ENLYFQS,0.106
same,area with substrate ENLYFQV,0.0635
same,area with substrate ENLYFQW,0.0675
same,area with substrate ENLYFQY,0.117
V200P,area with substrate ENLYFQA,0.071
same,area with substrate ENLYFQD,0.0557
same,area with substrate ENLYFQF,0.0624
same,area with substrate ENLYFQG,0.0645
same,area with substrate ENLYFQK,0.0459
same,area with substrate ENLYFQN,0.072
same,area with substrate ENLYFQS,0.0631
same,area with substrate ENLYFQY,0.059
V200T,area with substrate ENLYFQA,0.0351
same,area with substrate ENLYFQC,0.117
same,area with substrate ENLYFQH,0.0741
same,area with substrate ENLYFQI,0.0581
same,area with substrate ENLYFQM,0.0796
same,area with substrate ENLYFQS,0.0938
same,area with substrate ENLYFQT,0.0836
same,area with substrate ENLYFQW,0.0663
V200H,area with substrate ENLYFQA,0.064
same,area with substrate ENLYFQC,0.0687
same,area with substrate ENLYFQD,0.0446
same,area with substrate ENLYFQF,0.0426
same,area with substrate ENLYFQG,0.0787
same,area with substrate ENLYFQI,0.0607
same,area with substrate ENLYFQK,0.0664
same,area with substrate ENLYFQL,0.0485
same,area with substrate ENLYFQM,0.069
same,area with substrate ENLYFQN,0.0812
same,area with substrate ENLYFQP,0.0422
same,area with substrate ENLYFQR,0.0589
same,area with substrate ENLYFQS,0.0734
same,area with substrate ENLYFQT,0.0603
same,area with substrate ENLYFQV,0.0699
same,area with substrate ENLYFQW,0.0527
same,area with substrate ENLYFQY,0.0651
